Measurements as given in PubChem BioAssay (Tox21).
“And” between values parts separate entries of the source, which are not always exact repeats. Equal entries are not always repeated. Inconclusive results, whose numbers are uncertain, are shown with a selection of clear calls. A potency beside an inconclusive call is a rough fit, not a confirmed value. The source made the active and inactive calls. Unless noted, calls come from the whole dose curve; as a rule, active = well fitted inhibition curve with a large enough effect in the signal ratio in the repeat runs; inconclusive = weak or mixed curves, or effect the other way; inactive = flat fitted curve, though single readings scatter; the % refers to the signal ratio.

Experiment: qHTS assay for small molecule disruptors of the mitochondrial membrane potential - cell viability (AID 720634; calls by dose curve; note: nearly all actives have a fitted effect of over 20% in size)
Conditions: HepG2 viability, ATP luminescence (CellTiter-Glo), 1 h; series mostly up to 83.2 µM
Procedure, shortened: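 ATP-based luminescent viability readout (CellTiter-Glo, 30 min, room temperature) in HepG2 cells multiplexed with the m-MPI membrane potential dye; compound exposure lasted 1 hr at 37 C.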
% is set by controls: 0 for no effect and ±100 for the full control effect; potency is the fitted concentration of half-maximal effect; tags give direction and shape of the fitted curve or compound fluorescence and quenching.

| Compound | Potency |
| --- | --- |
| Nc1nc(N)nc(-c2ccccc2)n1 | inactive |
| O=C1OC2(c3ccc(O)cc3Oc3cc(O)ccc32)c2ccccc21 | inactive |
| O=c1cc(-c2ccccc2)oc2cc(O)cc(O)c12 | active: 30.6 µM |
| Oc1ccc(C(c2ccc(O)cc2)C(Cl)(Cl)Cl)cc1 | inconclusive: 19.3 µM [cytotoxic, partial curve, poor fit] |
| Clc1ccc(Nc2nnc(Cc3ccncc3)c3ccccc23)cc1 | active: 18.8 µM and inconclusive: 26.6 µM [cytotoxic, partial curve, poor fit] |

Experiment: qHTS assay for small molecule disruptors of the mitochondrial membrane potential (AID 720635)
Conditions: HepG2 mitochondrial membrane potential, Mito-MPS dye ratio; ratio activity, negative = MMP loss: at 83.2 µM (top of the series) unless noted
Procedure, shortened: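 HepG2 cells exposed to compound 1 hr at 37C, then Mito-MPS dye 30 min. Ratio read of aggregate (540/590 nm) versus monomer (490/535 nm) fluorescence.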

| Compound | Potency | ratio activity, negative = MMP loss |
| --- | --- | --- |
| OC/C(Br)=C(\Br)CO | inconclusive: 6.06 µM [activator, full curve] | – |
| Cc1cccc(Br)c1 | inactive | – |
| CCCCC=O | inactive | – |
| CCCCCC(CO)CCC (configuration not stated) | inactive | – |
| CC(C)(C)NCCNC(C)(C)C | inconclusive: 5.45 µM [activator, full curve] | – |
| O=C(O)c1cccnc1C(=O)O | – | inconclusive: 22.8% |
| CCCCCCCCCCCCCCC | inactive | – |
| CN1CCCN=C1COC(=O)C(O)(c1ccccc1)C1CCCCC1 (configuration not stated) | inconclusive: 2.66 µM [activator] | – |
| C=CC(=O)NC(C)(C)CS(=O)(=O)O | inconclusive: 49.3 µM [fluorescent, partial curve] | – |
| Clc1cccc(Cl)c1NC1=NCCN1 | – | inconclusive: -30.8% |
| CC[N+](CC)(CCNC(=O)C(=O)NCC[N+](CC)(CC)Cc1ccccc1Cl)Cc1ccccc1Cl | inactive | – |
| CC[C@@]1(c2ccccc2)NC(=O)N(C)C1=O | inconclusive: 2.98 µM [single point] | – |
